Reference: paper PMC12603070, “A high-throughput screening approach to discover potential colorectal cancer chemotherapeutics: repurposing drugs to identify novel disruptors of 14-3-3 proteins” (Cell Death & Disease, 2025)
Substitutions are numbered along the chain they refer to. Results are given in words; binding and its absence hold for the method and conditions named. Binding seen in cells or lysates may run through a third protein. Some entries that bind do so weakly or less than the wild type.

Sequences of proteins named here, by UniProt entry; tags and fusion partners are left off.
UniProt P63104: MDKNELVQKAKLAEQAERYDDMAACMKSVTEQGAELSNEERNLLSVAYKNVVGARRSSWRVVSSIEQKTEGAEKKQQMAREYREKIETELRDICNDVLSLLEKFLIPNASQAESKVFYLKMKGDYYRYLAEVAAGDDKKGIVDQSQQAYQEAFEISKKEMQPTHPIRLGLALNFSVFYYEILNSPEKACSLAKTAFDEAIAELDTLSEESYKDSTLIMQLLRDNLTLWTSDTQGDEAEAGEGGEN

What was measured:
[1] = target: T1, BAD-112-136F-112A-mC (murine) (UniProt Q61337); assay: FRET or BRET; BRET in living NIH-3T3 cells co-transfected with separate plasmids for the Rluc8 donor and the mCitrine acceptor; compared with mCitrine alone
T1 sequence: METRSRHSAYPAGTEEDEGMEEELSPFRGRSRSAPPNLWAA

[2] = target: T2, BAD-112-136F-mC (murine) (UniProt Q61337); assay: as above
T2 sequence: T1 sequence with A9S

[3] = target: T3, BAD-112-136F-136A-mC (murine) (UniProt Q61337); assay: as above
T3 sequence: T1 sequence with A9S, S33A

[4] = target: T4, BAD-112-136F-AA-mC (murine) (UniProt Q61337); assay: as above
T4 sequence: T1 sequence with S33A

[5] = target: T2, BAD-112-136F-mC (murine); assay: co-IP; lysate (RIPA buffer) of NIH-3T3 cells expressing the BRET sensor, treated with DMSO or FTY-720 (20 μM, 3 h); mCitrine precipitated with anti-GFP antibody and protein A/G magnetic beads; blots with anti-GFP and anti-Renilla luciferase

14-3-3ζ-Rluc8 (from UniProt P63104 1-245)
binding [1]: binds | binding [2]: binds | binding [3]: no binding | binding [4]: no binding | binding [5]: binds
